Measured values: PubChem BioAssay AID2451 (National Center for Advancing Translational Sciences (NCATS), 2010)
The whole screen tested about 290,000 compounds, of which about 2,100 (0.72%) were called active. This list was built around the results that the source calls inconclusive (neither active nor inactive); the mix of calls is not that of the screen. The call rests on the fitted dose curve; in most records, active means well fitted inhibition curve with a large enough effect; inconclusive means small, poorly fitted or top-dose-only effect, or effect the other way; inactive means flat fitted curve, though single readings scatter. Where the call is inconclusive, the potency comes from a doubtful curve fit.

Target: Fructose-bisphosphate aldolase (Giardia intestinalis (strain ATCC 50803 / WB clone C6)) (UniProt A8B2U2)
Assay: qHTS Assay for Inhibitors of Fructose-1,6-bisphosphate Aldolase from Giardia Lamblia; further: nearly all actives have a fitted effect of over 55% in size
Details: purified Giardia FBPA; activity, negative = inhibition: at 59.6 µM (top of the series) unless noted
Outline: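 40 nM FBPA preincubated 10 min at RT with compound (up to 57.5 uM final), then substrate plus GAPDH/TPI/NAD/arsenate coupling and diaphorase/resazurin added. Fluorescence read after 20 min at RT, 525/598 nm.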
On the % scale 0 is the no-effect control and ±100 the full control effect; potency means the concentration at half of the fitted maximal effect; tags describe the fitted curve by direction and shape.

Chain of UniProt A8B2U2 (A8B2U2 whole entry, looked up): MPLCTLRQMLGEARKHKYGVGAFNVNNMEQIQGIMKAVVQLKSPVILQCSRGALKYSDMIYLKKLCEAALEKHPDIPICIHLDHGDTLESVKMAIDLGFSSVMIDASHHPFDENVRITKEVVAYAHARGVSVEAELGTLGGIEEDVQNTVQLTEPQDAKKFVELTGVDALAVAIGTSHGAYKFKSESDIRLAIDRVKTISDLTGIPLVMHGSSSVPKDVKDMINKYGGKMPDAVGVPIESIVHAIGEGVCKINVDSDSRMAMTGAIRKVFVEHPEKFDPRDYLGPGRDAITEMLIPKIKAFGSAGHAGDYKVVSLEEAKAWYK

With `NC(=O)Cc1c[nH]c2cccc(O)c12` as the compound, how does the Potency read?
Its Potency is inconclusive: 15.8 µM [inhibitor, partial curve].

With `O=C(CSC1=NNC(c2ccccn2)S1)Nc1ccccc1` (configuration not stated) as the compound, how does the Potency read?
Its Potency is inconclusive: 12.6 µM [inhibitor, partial curve].

Which Potency does the source give for `CCCCC(=O)Nc1ccc(C(=O)NNC(=S)NC(=O)c2cccs2)cc1` here?
The Potency was inconclusive: 17.7 µM [activator, partial curve].

Which “activity, negative = inhibition” value does the source give for `C=Cn1cc[n+](CC(=O)c2ccc(C)cc2)c1` here?
The value was inactive: 0.439%.

For `Cn1c(O)c(C(=Nc2ccccc2)SCc2ccc(Cl)cc2)c(=O)n(C)c1=O`, which Potency is on record?
Its Potency is inconclusive: 17.7 µM [inhibitor, single point].

Which “activity, negative = inhibition” value does the source give for `Cc1nc2cc(NCc3cc([N+](=O)[O-])ccc3O)ccc2n1Cc1ccccc1` here?
Its value is inactive: -11.4%.

How did the Potency turn out when `COc1ccc(NC(=S)Nc2ccc3snnc3c2)cc1` was run?
Its Potency is inconclusive: 17.7 µM [inhibitor, partial curve].

`COc1ccc(/C(C)=N/NC(=O)C2CC2)cc1` was tested. Which “activity, negative = inhibition” value did it give?
Its value is inactive: 0.172%.

Which activity, negative = inhibition does the source give for `CCCCCCC1=Cc2cc(OC)c(OC)cc2C(CC(=O)/C=C/OC)O1` (configuration not stated) here?
Its activity, negative = inhibition is inactive: -8.36% [at 12.9 µM].

Which Potency does the source give for `CC(C)n1c(=S)[nH]c2scc(-c3cccs3)c2c1=O` here?
The Potency was inconclusive: 17.7 µM [inhibitor, single point].

`CC1CCCN(CCCOc2ccc(Br)cc2Cl)C1` (configuration not stated) was tested. Which Potency did it give?
The Potency was inconclusive: 19.9 µM [inhibitor, partial curve].

Which “activity, negative = inhibition” value does the source give for `CC(C)(C)c1ccc(C(=O)N2CCC(C(=O)c3ccccc3)CC2)cc1` here?
The value was inactive: 8.02%.

With `O=C(N/N=C/C1CC2C=CC1C2)c1ccccc1O` (configuration not stated) as the compound, how does the Potency read?
The Potency was inconclusive: 25.1 µM [inhibitor, single point].

With `COc1cc(C2C(C(C)=O)=C(O)C(=O)N2CCN2CCOCC2)ccc1O` (configuration not stated) as the compound, how does the “activity, negative = inhibition” value read?
Its value is inactive: -16%.

Which Potency does the source give for `O=C(Nc1nc2ccccc2n1Cc1ccc(Cl)cc1)c1ccco1` here?
Its Potency is inconclusive: 17.7 µM [activator, partial curve].

With `Nc1cccc2nsnc12` as the compound, how does the Potency read?
Its Potency is inconclusive: 17.7 µM [inhibitor, partial curve].

With `COc1cc(CN2CCN(C(=O)Cc3ccccc3)CC2)cc(OC)c1OC` as the compound, how does the Potency read?
Its Potency is inconclusive: 22.4 µM [inhibitor, partial curve].

Which Potency does the source give for `O=C(NC(=S)N1C[C@H]2C[C@H](C1)c1cccc(=O)n1C2)c1ccc(F)cc1` here?
The Potency was active: 7.94 µM.

How did the “activity, negative = inhibition” value turn out when `COc1cc(OC)cc(-c2ncc3ccccn23)c1` was run?
Its value is inactive: 4.28%.

Which Potency does the source give for `Nc1cccc2c3c(oc12)CCCC3` here?
Its Potency is inconclusive: 35.5 µM [inhibitor, single point].

Which Potency does the source give for `COc1ccc2[nH]c(=O)c(CNc3cccc(C)c3)cc2c1` here?
The Potency was inconclusive: 14.1 µM [inhibitor, partial curve].

How did the “activity, negative = inhibition” value turn out when `O=C(CCN1CCCCC1)c1ccc2c(c1)OCO2` was run?
Its value is inactive: -0.802%.

How did the Potency turn out when `COC(=O)CCCC1=CC2=C(c3ccccc3)C(=O)C(C)(OC(=O)C3CCCC3)C(=O)C2=CN1C1CCCC1` (configuration not stated) was run?
The Potency was inconclusive: 3.15 µM [inhibitor, full curve].

With `COc1ccc(OCC(=O)N(C)Cc2ccccc2)cc1` as the compound, how does the “activity, negative = inhibition” value read?
Its value is inactive: 1.4%.

For `Fc1ccc(OCCOCCN2CCNCC2)cc1`, which Potency is on record?
Its Potency is inconclusive: 20 µM [inhibitor, single point].

How did the Potency turn out when `CN(C)CCCOc1ccc2c(c1)Sc1ccccc1CC2=O` was run?
The Potency was inconclusive: 1.77 µM [inhibitor, single point].

Which Potency does the source give for `O=C(CNCc1ccccc1Cl)Nc1ccccc1N1CCCCC1` here?
The Potency was inconclusive: 19.9 µM [inhibitor, partial curve].

For `CC(C)c1onc(-c2c(Cl)cccc2Cl)c1COc1ccc(/C=C/c2cccc(C(=O)O)c2)c(Cl)c1`, which “activity, negative = inhibition” value is on record?
Its value is inactive: 12.7%.

How did the Potency turn out when `NC(=S)NNc1cccc(Cl)c1` was run?
The Potency was active: 12.6 µM.

For `CC(Nc1nc(-c2cccc(Br)c2)cs1)c1nc2cc(Cl)c(N3CCCCC3)cc2n1CCOCCO` (configuration not stated), which Potency is on record?
Its Potency is inconclusive: 39.8 µM [inhibitor, single point].

How did the activity, negative = inhibition turn out when `COc1cccc([C@@H]2Oc3ccc(OC)cc3/C(=N/O[C@@H](C)c3cn([C@H]4COC[C@H]4O)nn3)[C@@H]2O)c1` was run?
The activity, negative = inhibition was inactive: 0.537% [at 12.9 µM].

With `O=c1c2ccccc2sn1-c1ccccc1` as the compound, how does the Potency read?
Its Potency is inconclusive: 12.6 µM [inhibitor, partial curve].

`CNc1ccccc(-c2ccc3cc4c(cc3n2)OCO4)c1=O` was tested. Which Potency did it give?
The Potency was inconclusive: 7.06 µM [inhibitor, partial curve].

For `COc1cc(CN2CCN(C(=O)c3ccccc3F)CC2)cc(OC)c1OC`, which Potency is on record?
Its Potency is active: 28.2 µM.

With `O=C(NNC(=O)c1ccccc1Cl)c1ccco1` as the compound, how does the “activity, negative = inhibition” value read?
Its value is inactive: 0.38%.

With `O=[N+]([O-])c1cc(/C=N\Nc2nccs2)ccc1O` as the compound, how does the Potency read?
Its Potency is inconclusive: 17.7 µM [inhibitor, partial curve].

How did the Potency turn out when `CC(/C=N/NC(=O)c1ccccn1)=C\c1ccco1` was run?
The Potency was active: 19.9 µM.

How did the Potency turn out when `CCCCCn1c(NC(=O)c2ccco2)c(C(=O)OCC)c2nc3ccccc3nc21` was run?
The Potency was inconclusive: 7.06 µM [inhibitor, partial curve].

For `Cc1ccccc1OCCn1c(=S)[nH]c2ccccc21`, which Potency is on record?
The Potency was inconclusive: 5.01 µM [activator, partial curve].

For `NS(=O)(=O)c1ccc(-c2cccc(/C=C3\SC(=O)NC3=O)c2)cc1`, which Potency is on record?
The Potency was inconclusive: 17.8 µM [inhibitor, partial curve, poor fit].

How did the “activity, negative = inhibition” value turn out when `Cc1cccc(C(=O)NC2CCN(S(=O)(=O)c3ccccc3)CC2)c1` was run?
The value was inactive: 0.902%.

How did the Potency turn out when `CCc1nnc(N/N=C/c2cc(Br)c(O)cc2O)n1N` was run?
Its Potency is inconclusive: 39.8 µM [inhibitor, single point].

For `CCCCN(C)C(=O)CCC(=O)Nc1ccc2nc(N3CCN(C)CC3)cc(C)c2c1`, which “activity, negative = inhibition” value is on record?
The value was inactive: -1.14%.

For `CNC1(C(N)=O)CCNCC1`, which “activity, negative = inhibition” value is on record?
The value was inactive: 7.35%.

With `CN1CCN(C2=Nc3c(Cl)cc(Cl)c4cccc2c34)CC1` as the compound, how does the Potency read?
Its Potency is inconclusive: 19.9 µM [inhibitor, partial curve].

Which “activity, negative = inhibition” value does the source give for `COc1ccc(/C=C/c2noc(-c3ccccc3O)n2)cc1` here?
The value was inactive: -1.3%.

Which Potency does the source give for `CCOc1ccc(NC(=S)NCCCN2CCOCC2)cc1` here?
Its Potency is inconclusive: 31.5 µM [inhibitor, single point].

For `Nc1nc2c(c(=O)[nH]1)N=C(CNc1ccc(C(=O)NC(CCC(=O)O)C(=O)O)cc1)CN2` (configuration not stated), which Potency is on record?
Its Potency is inconclusive: 15.8 µM [inhibitor, partial curve].

`COCCNC(=O)CN1N=C(c2ccc(C)cc2)CCC1=O` was tested. Which “activity, negative = inhibition” value did it give?
Its value is inactive: 0.208%.

How did the Potency turn out when `CCOC(=O)c1ccc(NC(=O)CSc2nnc(CNc3ccc(OC)cc3)n2C)cc1` was run?
Its Potency is inconclusive: 15.8 µM [inhibitor, partial curve].

Which Potency does the source give for `O=C(Nc1ccc2c(c1)CCC2)c1ccc(Br)s1` here?
Its Potency is inconclusive: 35.4 µM [inhibitor, single point].

With `Cc1[nH]n(-c2nc(-c3ccccc3)cc(=O)[nH]2)c(=O)c1CCO` as the compound, how does the Potency read?
Its Potency is inconclusive: 5.61 µM [inhibitor, partial curve].

`O=C(Nc1ccccc1)c1cc2ccccc2o1` was tested. Which “activity, negative = inhibition” value did it give?
The value was inactive: -22%.

With `CCCCN1C(=O)C2(NNc3ccccc3O2)c2ccccc21` (configuration not stated) as the compound, how does the Potency read?
Its Potency is inconclusive: 15.8 µM [inhibitor, partial curve].

How did the Potency turn out when `Cc1cc(C(=O)COc2cccnc2[N+](=O)[O-])c(C)n1Cc1ccco1` was run?
Its Potency is inconclusive: 1.77 µM [inhibitor, full curve, poor fit].

For `CCOC(=O)c1c(N)sc(N)c1C(=O)OCC`, which Potency is on record?
Its Potency is inconclusive: 17.7 µM [inhibitor, partial curve].

With `O=[N+]([O-])c1cccc(CN2CCN(Cc3ccc(Cl)cc3)CC2)c1` as the compound, how does the Potency read?
Its Potency is active: 17.7 µM.

`COc1ccc2c(c1)[nH]c1c(=O)n(/N=C/c3ccc(OC)c(CN4CCCCC4)c3)cnc12` was tested. Which “activity, negative = inhibition” value did it give?
The value was inactive: 0.0864%.

`COC(=O)c1ccc(/C=C(\C#N)C(=O)NC(C)c2ccccc2)cc1` (configuration not stated) was tested. Which “activity, negative = inhibition” value did it give?
The value was inactive: 5.74%.

`O=C(O)CCCCCCCCCCCc1ccccc1` was tested. Which Potency did it give?
The Potency was inconclusive: 15.8 µM [activator, single point].

For `Fc1ccc(CNC2CCN(Cc3ccccc3)CC2)cc1`, which Potency is on record?
Its Potency is inconclusive: 31.6 µM [inhibitor, partial curve].

`CCOC(=O)c1c(NC(=O)OC)sc(C(=O)N(CC)CC)c1C` was tested. Which “activity, negative = inhibition” value did it give?
The value was inactive: -1.19%.

`Clc1ccc(-c2cn3nc4c(nc3n2)CCCC4)cc1` was tested. Which Potency did it give?
Its Potency is inconclusive: 15.8 µM [inhibitor, partial curve].

For `CCCNC(=O)c1cc(-c2ccco2)on1`, which “activity, negative = inhibition” value is on record?
The value was inactive: -3.32%.

Which “activity, negative = inhibition” value does the source give for `COc1ccc(-c2csc(NC(=O)c3nc(-c4ccccc4)oc3C)n2)cc1` here?
Its value is inactive: -2.64%.

`Cc1cc2oc(C(=O)Nc3ccc(S(=O)(=O)Nc4ncccn4)cc3)cc(=O)c2cc1Cl` was tested. Which Potency did it give?
The Potency was inconclusive: 28.2 µM [inhibitor, partial curve].

With `CCn1c(C(C#N)/C(=N\S(=O)(=O)c2cccs2)c2ccccc2)nc2ccccc21` (configuration not stated) as the compound, how does the Potency read?
The Potency was inconclusive: 31.5 µM [activator, single point].
